Reference: PubChem BioAssay AID686978 (National Center for Advancing Translational Sciences (NCATS), 2013)
Among all 420,000 compounds or so, about 64,000 (15%) were called active. Inconclusive results, whose numbers are uncertain, are shown with a selection of clear calls. The call rests on the fitted dose curve; in most records, active means well fitted inhibition curve with a large enough effect; inconclusive means small, poorly fitted or top-dose-only effect; inactive means flat fitted curve, though single readings scatter. Potencies of inconclusive entries are left out as doubtful fits.
Potency means the concentration at half of the fitted maximal effect; tags describe the fitted curve by direction and shape.

Experiment: qHTS for Inhibitors of human tyrosyl-DNA phosphodiesterase 1 (TDP1): qHTS in cells in absence of CPT; further: nearly all actives have a fitted effect of over 55% in size
Details: DT40 Tdp1-/- hTDP1 cells, no CPT, ATP luminescence, 48 h; series mostly up to 46.2 µM
How it was run: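 Growth kinetics read by CellTiter-Glo luminescence after ≥48 hr at 37 °C. Cells: DT40 Tdp1-/- stably carrying human TDP1, 400 per well, compound exposure in the absence of CPT (DMSO vehicle).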
With CC[C@@H](C)[C@@H]1CN([C@@H](C)CN2CCC[C@H]2CN2C(N)=NC[C@H]2C(C)C)C(=N)N1CCc1ccc(Cl)c(Cl)c1 the Potency was inconclusive [inhibitor, single point].
With CCOC(=O)C1=CC[C@@H](c2ccccc2)N(S(=O)(=O)c2ccc(C)cc2)[C@@H]1C#N the Potency was inconclusive [inhibitor, single point].
With CCOC(=O)C1(CCOc2ccccc2)CCN(Cc2cc(OC)c(O)c(OC)c2)CC1 the Potency was inconclusive [inhibitor, single point].
For Oc1ccc(N2CCN(C(c3cccnc3)c3nnnn3Cc3ccccc3)CC2)cc1 (stereo not drawn), the Potency was active: 18.4 µM.
For Cc1ccccc1OCCOC(=O)c1cc(S(=O)(=O)N2CCOCC2)ccc1C, the Potency was inconclusive [inhibitor, single point].
In the case of O=C1CC(=O)Nc2ccccc2N1, the Potency is reported as “inactive”.
With O=C(O)c1ccc(Nc2nc3c(s2)CCCC3)cc1 the Potency was “inactive”.
In the case of CC(C)C[C@@H](C(=O)N[C@@H](C(=O)O)c1ccccc1)N1C(=O)N2CCc3c([nH]c4ccccc34)[C@@]2(C)C1=O, the Potency is reported as “inactive”.
For CSc1nc(-c2ccco2)nn1C(=O)c1cccs1, the Potency was inconclusive [inhibitor, single point].
For CCOC(=O)c1cccc(NC(=O)CCn2c(-c3ccc(F)cc3)cc(C(=O)OCC)c2C)c1, the Potency was active: 13 µM.
In the case of CC(=O)N1CCN(CC(=O)c2ccc(Br)cc2)CC1, the Potency is reported as “inactive”.
For CCc1ccc2nc(SCC(=O)Nc3nnc(C)s3)c(C)cc2c1, the Potency was inconclusive [inhibitor, partial curve, poor fit].
For N[C@@H](CSCCCO)C(=O)O, the Potency was “inactive”.
For O=C1OC(NC(=O)c2ccccc2)C(n2cc(CO)nn2)=C1Cl (stereo not drawn), the Potency was inconclusive [inhibitor, single point].
With O=C(/C=C/c1ccccc1)NCCc1ccccc1 the Potency was active: 11.6 µM.
In the case of CC(=O)c1ccc(NC(=O)COC(=O)/C=C/c2cccs2)cc1, the Potency is reported as inconclusive [inhibitor, single point].
In the case of CC(=O)c1cccc(NC(=O)C2CCN(S(=O)(=O)c3ccc4c(c3)oc(=O)n4C)CC2)c1, the Potency is reported as inconclusive [inhibitor, single point].
For CCOC(=O)C1(CCOc2ccccc2)CCN(C(=O)c2ccc(-n3cccn3)cc2)CC1, the Potency was active: 20.6 µM.
For Cc1ccc2cc(C=O)c(N3CCOCC3)nc2c1C, the Potency was active: 18.4 µM.
For COc1cc2c(cc1NC(=O)CSc1nc3ccccc3[nH]1)oc1ccccc12, the Potency was inconclusive [inhibitor, single point].
For COc1cccc(/C=N/NC(=O)Cn2nc(C)c([N+](=O)[O-])c2C)c1O, the Potency was active: 5.8 µM.
For COc1ccc(N(C(=O)c2ccco2)C(C(=O)NC2CCCC2)c2cccs2)cc1 (stereo not drawn), the Potency was inconclusive [inhibitor, partial curve].
For COc1ccc(-c2oc3c(c2C(=O)OCCO)C(OCCCO)CCC3)cc1 (stereo not drawn), the Potency was inconclusive [inhibitor, partial curve].
With CCOc1cc(NS(=O)(=O)c2ccc(OC)cc2)c(OCC)cc1NC(=O)c1ccco1 the Potency was active: 23.1 µM.
In the case of COC(=O)c1ccccc1NC(=O)CN(CCc1ccccc1)S(C)(=O)=O, the Potency is reported as inconclusive [inhibitor, partial curve].
With O=C(NN1C(=O)C2C3C=CC(C4CC34)C2C1=O)c1ccc(Cl)cc1 (stereo not drawn) the Potency was inconclusive [inhibitor, single point].
In the case of COc1cc(OC)cc(C(=O)NCC(=O)Nc2ccc(OC)c(Cl)c2)c1, the Potency is reported as “inactive”.
For Cc1cccc(C(=O)Nc2cccc(-c3ccc4nncn4n3)c2)c1, the Potency was inconclusive [inhibitor, partial curve, poor fit].
In the case of C/C(=C1/SC(N2CC(C)OC(C)C2)=NC1=O)c1ccccc1 (stereo not drawn), the Potency is reported as inconclusive [inhibitor, partial curve].
In the case of O=C(CSCc1ccccc1Cl)N1CCN(c2ccc(Cl)cc2)CC1, the Potency is reported as inconclusive [inhibitor, single point].
For Cc1cccc(C(=O)NCCc2ccccc2)c1, the Potency was inconclusive [inhibitor, partial curve].
With COc1ccc(Cn2ccn(Cc3cccc(OC)c3)c(=O)c2=O)cc1 the Potency was inconclusive [inhibitor, single point].
In the case of CCN1C(=O)N[C@@H](CCc2ccccc2)C(C(=O)OC)=C1C, the Potency is reported as inconclusive [inhibitor, single point].
With CSC1=N/C(=C\c2ccc3c(c2)OCO3)C(=O)S1 the Potency was inconclusive [inhibitor, single point].
With CC(=O)NCCCNC(=S)NCCCN(Cc1ccc(Cl)cc1)c1ccc(Br)cn1 the Potency was inconclusive [inhibitor, single point].
With CCCCNC(=O)C(CC)n1c(SCc2cccc(F)c2)nc2ccncc21 (stereo not drawn) the Potency was inconclusive [inhibitor, single point].
In the case of Cc1csc(N2CCN(c3cc4nc(-c5ccncc5)[nH]c4cc3Cl)CC2)n1, the Potency is reported as inconclusive [inhibitor, partial curve].
For COc1cc2ccccc2cc1C(=O)Nc1ccc(Cc2ccncc2)cc1, the Potency was active: 25.9 µM.
For CCCCCN(C(=O)CCC(=O)OCc1cccc(C(F)(F)F)c1)c1c(N)n(CCCC)c(=O)[nH]c1=O, the Potency was inconclusive [inhibitor, single point].
In the case of CCOc1cc([N+](=O)[O-])cc2c1C(=O)Nc1ccccc1O2, the Potency is reported as inconclusive [inhibitor, single point].
In the case of CC(C)c1ccc(NC(=O)COc2nnc(-c3cccs3)c(-c3cccs3)n2)cc1, the Potency is reported as inconclusive [inhibitor, single point].
For CCOC(=O)C1CCN(C(=O)c2ccc(-n3ccc4ccccc43)s2)CC1, the Potency was active: 20.6 µM.
With CCOC(=O)c1cc2c(=O)n3ccccc3nc2n(Cc2ccco2)c1=NC(=O)c1cccc(OC)c1 the Potency was inconclusive [inhibitor, single point].
